Out of some 150,000 compounds screened, about 6,500 (4.3%) were called active. Inconclusive means that the source gave no clear call. Such entries were picked first, then a sample of the others. Calls come from the whole dose curve; as a rule, active = well fitted inhibition curve with a large enough effect (not every such curve was filed as active); inconclusive = small, poorly fitted or top-dose-only effect, or another doubt; inactive = no such curve, though single readings can be large or run the other way. Potencies beside an inconclusive call are fits to weak or partial responses and may not hold up.
molecular target: 15-hydroxyprostaglandin dehydrogenase [NAD(+)] (Homo sapiens) (UniProt P15428); assay: qHTS Assay for Inhibitors of HPGD (15-Hydroxyprostaglandin Dehydrogenase); details: purified HPGD, NADH fluorescence kinetic, PGE2 substrate; activity change, negative = inhibition: active compounds read low
Method in brief: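 20 nM HPGD preincubated 15 min at room temperature with compound in 50 mM Tris-HCl pH 8, 0.01% Tween 20. Started with 1 mM NAD+ and 30 uM prostaglandin E2; NADH fluorescence (360/450 nm) read 5 times over 30-s intervals, last minus first.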
% is set by controls: 0 for no effect and ±100 for the full control effect; potency is the fitted concentration of half-maximal effect; tags give direction and shape of the fitted curve.

Sequence of UniProt P15428 (P15428 whole entry, looked up): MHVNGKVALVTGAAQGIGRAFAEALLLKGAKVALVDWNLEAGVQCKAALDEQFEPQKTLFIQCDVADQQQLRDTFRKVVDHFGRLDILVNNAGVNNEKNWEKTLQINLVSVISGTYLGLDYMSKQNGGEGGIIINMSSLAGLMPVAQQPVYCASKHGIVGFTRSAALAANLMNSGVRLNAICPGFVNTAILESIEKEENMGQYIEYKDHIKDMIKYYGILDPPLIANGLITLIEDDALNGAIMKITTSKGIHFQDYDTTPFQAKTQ

Activity change, negative = inhibition, inactive:
CC(C)(C)NC(=O)Cn1c(=O)oc2cc(S(=O)(=O)N3CCc4ccccc43)ccc21 -6.18%
COc1ccc(OC)c(C2C(C(=O)c3cc4ccccc4o3)=C(O)C(=O)N2c2cc(C)on2)c1 (stereo unspecified) -10.6%
O=c1oc(-c2cc3ccccc3o2)nc2sc3c(c12)CCCC3 -5.99%
O=C(Nc1ccc(N2CCCC2)cc1)c1cccc(F)c1 -8.75%
CC(C)C(=O)Nc1ccc(Nc2ccccc2)cc1 -23%
COc1ccc(S(=O)(=O)Nc2ccc(S(=O)(=O)N3CCCCC3)cc2)cc1C -12%
COC(=O)c1ccccc1NC(=O)c1ccccc1SC -30.3%
O=C(OCC(=O)N1c2ccccc2Sc2ccccc21)C1CC(=O)N(Cc2ccco2)C1 (stereo unspecified) -12.2%

Potency, inconclusive:
N#Cc1nc(-c2cccs2)oc1NCc1ccccc1Cl 25.1 µM [inhibitor, partial curve]
O=C(CCS(=O)(=O)c1ccc(Br)s1)NCc1cccs1 31.6 µM [inhibitor, single point]
CCOC(=O)N1CCc2c(sc3c2C(=O)NC(c2ccccc2)N3)C1 (stereo unspecified) 25.1 µM [inhibitor, partial curve]
CCN1CCc2c(sc3c2c(NCc2ccco2)nc2nnnn23)C1 15.8 µM [inhibitor, partial curve]
COc1cc2c(cc1OC)C1=C(C#N)CC/C(=N\S(=O)(=O)c3ccccc3)N1CC2 31.6 µM [inhibitor, partial curve]
Cc1csc(NC(=O)CSc2nc3ccccc3c(=O)[nH]2)n1 22.4 µM [inhibitor, single point]
Nn1c(Cc2cccc3ccccc23)nnc1SCc1ccccc1Cl 2.24 µM [inhibitor, full curve]
Cc1nn2c3ccccc3n(Cc3ccccc3)c2nc1=O 28.2 µM [inhibitor, partial curve]
c1ccc2c(c1)ncn2Cc1nnc2sc(-c3ccc4c(c3)OCO4)nn12 14.1 µM [inhibitor, partial curve]
CC(=O)Nc1cccc(Oc2ncnc3scc(-c4ccccc4)c23)c1 31.6 µM [inhibitor, single point]
O=C(Cc1ccccc1[N+](=O)[O-])NCCSCc1c(F)cccc1Cl 12.6 µM [inhibitor, partial curve]

Potency, active:
N#Cc1c(C(F)(F)F)cc(-c2ccc(Cl)c(Cl)c2)nc1SCCN1CCOCC1 25.1 µM
COc1ccc(N=Nc2nc3cc(Br)c(Br)cc3n2C)c(OC)c1 7.94 µM
